From publication PMC10485003, “Antibiotic hyper-resistance in a class I aminoacyl-tRNA synthetase with altered active site signature motif” (Nature Communications, 2023)
Several values for one entry are separate records, joined by “and”; a condition that tells them apart may be missing. Equal values may be shown once. Read-outs that look alike come from different tables or passages of the source. The source gives many values for each of these; only a part stands here.

Biological target: T1, mut-HVGH DrIleRS2 (Deinococcus radiodurans, UniProt Q9RUP8, A59H/H61G/L60V)
T1 construct: hexa-histidine tag (pET28b(+)) (N); made in house; host or cells: E. coli BL21(DE3)
T1 sequence (Q9RUP8 1-1078 A59H/L60V/H61G): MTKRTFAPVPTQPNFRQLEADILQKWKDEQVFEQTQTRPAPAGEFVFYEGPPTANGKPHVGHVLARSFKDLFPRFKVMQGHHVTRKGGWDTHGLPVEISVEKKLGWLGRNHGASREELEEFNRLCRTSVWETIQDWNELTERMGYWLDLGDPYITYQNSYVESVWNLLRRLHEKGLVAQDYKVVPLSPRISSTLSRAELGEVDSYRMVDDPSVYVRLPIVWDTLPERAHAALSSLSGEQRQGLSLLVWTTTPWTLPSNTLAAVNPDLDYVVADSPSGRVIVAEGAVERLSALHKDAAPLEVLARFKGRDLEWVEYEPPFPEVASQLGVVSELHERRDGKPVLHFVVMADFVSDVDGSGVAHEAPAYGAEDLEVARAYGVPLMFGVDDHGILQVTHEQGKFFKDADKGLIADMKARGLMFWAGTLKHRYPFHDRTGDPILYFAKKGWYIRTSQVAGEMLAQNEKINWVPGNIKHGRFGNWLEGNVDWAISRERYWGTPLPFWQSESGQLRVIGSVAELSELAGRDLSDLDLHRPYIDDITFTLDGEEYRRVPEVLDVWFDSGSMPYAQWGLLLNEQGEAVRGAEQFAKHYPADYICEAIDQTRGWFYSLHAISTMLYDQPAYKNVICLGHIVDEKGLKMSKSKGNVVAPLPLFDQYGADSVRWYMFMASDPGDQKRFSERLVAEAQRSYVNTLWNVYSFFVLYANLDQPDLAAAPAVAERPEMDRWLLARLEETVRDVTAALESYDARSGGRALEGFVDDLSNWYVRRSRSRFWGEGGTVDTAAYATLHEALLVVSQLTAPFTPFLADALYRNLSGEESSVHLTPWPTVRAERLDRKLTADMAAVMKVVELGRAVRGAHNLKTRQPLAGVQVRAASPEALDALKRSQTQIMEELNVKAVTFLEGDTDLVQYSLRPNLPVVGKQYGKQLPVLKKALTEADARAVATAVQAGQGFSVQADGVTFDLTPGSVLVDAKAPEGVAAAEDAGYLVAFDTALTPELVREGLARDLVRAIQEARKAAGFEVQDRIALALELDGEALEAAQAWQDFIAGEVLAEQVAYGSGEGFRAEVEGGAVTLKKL
Type: biochemical
Procedure: L-Ile and ATP concentrations ranged from 1/10 KM to 10 KM values. When measuring the KI towards one of the substrates, the other was held in saturation (concentrations at least 10 KM). The aliquots of the reaction mixture (1–2.5 μl) were quenched in 2 volumes of 500 mM NaOAc pH = 4.5, 0.1% SDS, and formed ^32P-ATP was separated from the remaining ^32P-PPi by thin-layer chromatography on Polygram CEL 300 PEI UV254 TLC plates (Macherey-Nagel, cat: 801063) using 750 mM KH2PO4 pH=3.5, 4 M urea buffer. Visualization and quantification of the signals was performed using a Typhoon Phosphoimager 5 (General Electric) and accompanying ImageQuant™ TL software (SV: 10.2). The kinetic constants were determined using a global fit option of the competitive inhibition model of GraphPad Prism 6 software (SV: 6.01). All experiments were performed in triplicates. The kcat was determined by dividing the maximal velocity, VM, with the used enzyme concentration. […]
variable substrate (ATP or Ile) was varied in the range of 0.1 KM to 10 KM. The other substrate (Ile or ATP) was kept in excess at 5 to 10 KM. Data were globally fitted to the competitive inhibition model using GraphPad prism 6.01 for Windows software. The values represent the average value ± SD of three independent experiments. Source data are provided as a Source Data file.
(1 picture or pasted object on this page, not shown here)

## C/C(=C\C(=O)OCCCCCCCCC(=O)O)C[C@@H]1OC[C@H](C[C@@H]2O[C@H]2[C@@H](C)[C@H](C)O)[C@@H](O)[C@H]1O [mupirocin]
c(mupirocin) 5.0 μM, c(ATP) 0.5 mM
  initial velocity vo: 0.03327 mM/min and 0.03484 mM/min and 0.03458 mM/min
c(mupirocin) 5.0 μM, c(ATP) 1.0 mM
  initial velocity vo: 0.04514 mM/min and 0.0474 mM/min and 0.04561 mM/min
c(mupirocin) 5.0 μM, c(ATP) 2.5 mM
  initial velocity vo: 0.05674 mM/min and 0.0588 mM/min and 0.05907 mM/min
c(mupirocin) 5.0 μM, c(ATP) 5.0 mM
  initial velocity vo: 0.06469 mM/min and 0.06292 mM/min and 0.06379 mM/min
c(mupirocin) 5.0 μM, c(ATP) 10.0 mM
  initial velocity vo: 0.06774 mM/min and 0.06959 mM/min and 0.07015 mM/min
c(mupirocin) 5.0 μM, c(Ile) 5.0 μM
  initial velocity vo: 0.0129 mM/min and 0.01075 mM/min and 0.01073 mM/min
c(mupirocin) 5.0 μM, c(Ile) 10.0 μM
  initial velocity vo: 0.01995 mM/min and 0.01847 mM/min and 0.01868 mM/min
c(mupirocin) 5.0 μM, c(Ile) 25.0 μM
  initial velocity vo: 0.03629 mM/min and 0.03521 mM/min and 0.03567 mM/min
c(mupirocin) 5.0 μM, c(Ile) 50.0 μM
  initial velocity vo: 0.0469 mM/min and 0.04783 mM/min and 0.04766 mM/min
c(mupirocin) 5.0 μM, c(Ile) 100.0 μM
  initial velocity vo: 0.05712 mM/min and 0.05672 mM/min and 0.05643 mM/min
c(mupirocin) 5.0 μM, c(Ile) 250.0 μM
  initial velocity vo: 0.06618 mM/min and 0.06896 mM/min and 0.0659 mM/min
c(mupirocin) 10.0 μM, c(ATP) 0.5 mM
  initial velocity vo: 0.02937 mM/min and 0.02803 mM/min and 0.03007 mM/min
c(mupirocin) 10.0 μM, c(ATP) 1.0 mM
  initial velocity vo: 0.04219 mM/min and 0.04308 mM/min and 0.04326 mM/min
c(mupirocin) 10.0 μM, c(ATP) 2.5 mM
  initial velocity vo: 0.05586 mM/min and 0.05467 mM/min and 0.05833 mM/min
c(mupirocin) 10.0 μM, c(ATP) 5.0 mM
  initial velocity vo: 0.06405 mM/min and 0.06224 mM/min and 0.06515 mM/min
c(mupirocin) 10.0 μM, c(ATP) 10.0 mM
  initial velocity vo: 0.06656 mM/min and 0.06609 mM/min and 0.06838 mM/min
c(mupirocin) 10.0 μM, c(Ile) 5.0 μM
  initial velocity vo: 0.00841 mM/min and 0.00793 mM/min
c(mupirocin) 10.0 μM, c(Ile) 10.0 μM
  initial velocity vo: 0.01474 mM/min and 0.01242 mM/min and 0.01403 mM/min
c(mupirocin) 10.0 μM, c(Ile) 25.0 μM
  initial velocity vo: 0.02679 mM/min and 0.0288 mM/min
c(mupirocin) 10.0 μM, c(Ile) 50.0 μM
  initial velocity vo: 0.03976 mM/min and 0.04222 mM/min
c(mupirocin) 10.0 μM, c(Ile) 100.0 μM
  initial velocity vo: 0.05189 mM/min and 0.05281 mM/min and 0.05518 mM/min
c(mupirocin) 10.0 μM, c(Ile) 250.0 μM
  initial velocity vo: 0.06307 mM/min and 0.05915 mM/min and 0.06518 mM/min
c(mupirocin) 25.0 μM, c(ATP) 0.5 mM
  initial velocity vo: 0.0191 mM/min
c(mupirocin) 25.0 μM, c(ATP) 1.0 mM
  initial velocity vo: 0.03155 mM/min and 0.02933 mM/min and 0.03091 mM/min
c(mupirocin) 25.0 μM, c(ATP) 2.5 mM
  initial velocity vo: 0.04534 mM/min and 0.0464 mM/min and 0.04521 mM/min
c(mupirocin) 25.0 μM, c(ATP) 5.0 mM
  initial velocity vo: 0.05626 mM/min and 0.05591 mM/min and 0.0586 mM/min
c(mupirocin) 25.0 μM, c(ATP) 10.0 mM
  initial velocity vo: 0.06316 mM/min and 0.0606 mM/min and 0.06102 mM/min
c(mupirocin) 25.0 μM, c(Ile) 5.0 μM
  initial velocity vo: 0.00447 mM/min and 0.00286 mM/min and 0.00381 mM/min
c(mupirocin) 25.0 μM, c(Ile) 10.0 μM
  initial velocity vo: 0.00829 mM/min and 0.00542 mM/min and 0.00779 mM/min
c(mupirocin) 25.0 μM, c(Ile) 25.0 μM
  initial velocity vo: 0.01859 mM/min and 0.01898 mM/min and 0.01914 mM/min
c(mupirocin) 25.0 μM, c(Ile) 50.0 μM
  initial velocity vo: 0.03035 mM/min and 0.03048 mM/min and 0.03012 mM/min
c(mupirocin) 25.0 μM, c(Ile) 100.0 μM
  initial velocity vo: 0.04249 mM/min and 0.0435 mM/min
c(mupirocin) 25.0 μM, c(Ile) 250.0 μM
  initial velocity vo: 0.05543 mM/min and 0.05579 mM/min and 0.05654 mM/min
c(mupirocin) 50.0 μM, c(ATP) 0.5 mM
  initial velocity vo: 0.01252 mM/min and 0.01316 mM/min
c(mupirocin) 50.0 μM, c(ATP) 1.0 mM
  initial velocity vo: 0.02068 mM/min and 0.0206 mM/min and 0.02087 mM/min
c(mupirocin) 50.0 μM, c(ATP) 2.5 mM
  initial velocity vo: 0.03486 mM/min and 0.03651 mM/min and 0.03535 mM/min
c(mupirocin) 50.0 μM, c(ATP) 5.0 mM
  initial velocity vo: 0.04936 mM/min and 0.04894 mM/min and 0.04899 mM/min
c(mupirocin) 50.0 μM, c(ATP) 10.0 mM
  initial velocity vo: 0.05747 mM/min and 0.05622 mM/min and 0.05873 mM/min
c(mupirocin) 50.0 μM, c(Ile) 10.0 μM
  initial velocity vo: 0.00515 mM/min and 0.00412 mM/min and 0.00552 mM/min
c(mupirocin) 50.0 μM, c(Ile) 25.0 μM
  initial velocity vo: 0.01292 mM/min and 0.01386 mM/min and 0.01166 mM/min
c(mupirocin) 50.0 μM, c(Ile) 50.0 μM
  initial velocity vo: 0.0214 mM/min and 0.02166 mM/min and 0.02104 mM/min
c(mupirocin) 50.0 μM, c(Ile) 100.0 μM
  initial velocity vo: 0.03443 mM/min and 0.03225 mM/min and 0.03201 mM/min
c(mupirocin) 50.0 μM, c(Ile) 250.0 μM
  initial velocity vo: 0.05004 mM/min and 0.04981 mM/min and 0.0499 mM/min
c(mupirocin) 100.0 μM, c(ATP) 0.5 mM
  initial velocity vo: 0.0049 mM/min and 0.00448 mM/min and 0.00457 mM/min
c(mupirocin) 100.0 μM, c(ATP) 1.0 mM
  initial velocity vo: 0.01134 mM/min and 0.01322 mM/min and 0.0128 mM/min
c(mupirocin) 100.0 μM, c(ATP) 2.5 mM
  initial velocity vo: 0.02596 mM/min and 0.02538 mM/min and 0.02608 mM/min
c(mupirocin) 100.0 μM, c(ATP) 5.0 mM
  initial velocity vo: 0.0379 mM/min and 0.03912 mM/min and 0.038 mM/min
c(mupirocin) 100.0 μM, c(ATP) 10.0 mM
  initial velocity vo: 0.05029 mM/min and 0.04929 mM/min and 0.05151 mM/min
c(mupirocin) 100.0 μM, c(Ile) 5.0 μM
  initial velocity vo: 0.00154 mM/min and 0.00159 mM/min
c(mupirocin) 100.0 μM, c(Ile) 10.0 μM
  initial velocity vo: 0.00291 mM/min and 0.00285 mM/min
c(mupirocin) 100.0 μM, c(Ile) 25.0 μM
  initial velocity vo: 0.00712 mM/min and 0.0073 mM/min and 0.00695 mM/min
c(mupirocin) 100.0 μM, c(Ile) 50.0 μM
  initial velocity vo: 0.01325 mM/min and 0.01344 mM/min and 0.01293 mM/min
c(mupirocin) 100.0 μM, c(Ile) 100.0 μM
  initial velocity vo: 0.02202 mM/min and 0.02146 mM/min
c(mupirocin) 100.0 μM, c(Ile) 250.0 μM
  initial velocity vo: 0.0379 mM/min and 0.03732 mM/min and 0.03625 mM/min
